# The supplement of paper PMC4723716
# ± gives the uncertainty stated by the source. Over roughly 9,900 compounds, “viability index relative to DMSO control” has its median near 1; the lowest 2% begin near 0.85. This is one part of the list.
# Tested on: Plasmodium falciparum NF54 stage V gametocytes
# Test: viability index relative to DMSO control (fraction); higher = less gametocyte killing
# Conditions: 2.5 µM, library set: Broad Institute DOS, incubation time: 72 h
# In short: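 Gametocytes (P. falciparum NF54, stage V) were treated with compound at 2.5 µM for 72 hr at 37°C in low oxygen, in serum-free medium at 0.75% gametocytemia and 1.25% hematocrit. Counts of 20–70 µm2 red particles, taken from one field per well after MitoTracker Red CMXRos with saponin, were divided by the plate mean of solvent-only wells. This ratio is the viability index.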
row,SMILES,viability index
1,Cc1noc(C)c1NC(=O)Nc1ccc2c(c1)C(=O)N([C@H](C)CO)C[C@@H](C)[C@H](CN(C)S(=O)(=O)c1cccs1)OCCCC[C@H](C)O2,0.886 ± 0.1
2,C[C@@H]1CN([C@H](C)CO)C(=O)c2cc(N(C)C)ccc2O[C@@H](C)CCCCO[C@@H]1CN(C)Cc1ccc(C(=O)O)cc1,1.12 ± 0.053
3,CCCC(=O)N1C[C@@H]2[C@H](c3ccccc31)[C@H](CO)N2Cc1cocn1,1.02 ± 0.022
4,CN(C)CC(=O)N1[C@@H](CO)[C@@H]2c3ccccc3N(C(=O)Cc3ccccc3)C[C@@H]21,0.956 ± 0.035
5,O=C(N[C@@H]1CC[C@@H](CC(=O)N2CCOCC2)O[C@@H]1CO)c1cccc(F)c1,0.966 ± 0.034
6,O=C(C[C@@H]1CC[C@H]2[C@@H](COC[C@@H](O)CN2Cc2cc(F)cc(F)c2)O1)Nc1nccs1,1.09 ± 0.039
7,CCN(C[C@H]1[C@H](c2ccccc2)[C@@H](CO)N1C(=O)COC)S(C)(=O)=O,0.981 ± 0.049
8,C[C@H](CO)N1C[C@H](C)[C@H](CN(C)C(=O)Nc2cccc(C(F)(F)F)c2)OCc2ccccc2-c2ccccc2C1=O,0.935 ± 0.014
9,CO[C@@H](CN(C)C(=O)C1CCOCC1)[C@@H](C)CN([C@@H](C)CO)S(=O)(=O)c1ccccc1,1.08 ± 0.11
10,C[C@@H]1CCCCO[C@@H](CN(C)CC2CC2)[C@@H](C)CN([C@H](C)CO)C(=O)c2cc(NC(=O)c3ccccc3)ccc2O1,1.14 ± 0.028
11,O=C(C[C@@H]1CC[C@@H]2[C@H](COC[C@@H](O)CN2C(=O)c2ccccc2F)O1)NCc1ccc(Cl)c(Cl)c1,1.1043 ± 0.00085
12,COc1ccc(-c2ccc3n(c2=O)C[C@@H]2[C@@H](CO)[C@H](C(=O)N(C)C)[C@H]3N2Cc2cncnc2)cc1,1.04 ± 0.017
13,COc1ccc(C(=O)Nc2ccc3c(c2)C(=O)N(C)[C@H]2CC[C@H](CC(=O)NCC4CC4)O[C@H]2CO3)cc1,0.823 ± 0.15
14,CCNC(=O)C[C@@H]1CC[C@@H]2[C@H](COC[C@H](O)CN2C(=O)C2CCCC2)O1,1.03 ± 0.065
15,Cc1ccccc1-c1ccccc1[C@@H]1[C@H](C#N)N(C(=O)c2ccc(F)cc2)[C@H]1CO,1.15 ± 0.041
16,CO[C@@H](CN(C)Cc1cc(F)ccc1F)[C@@H](C)CN([C@@H](C)CO)S(=O)(=O)c1ccc(C)cc1,0.976 ± 0.0017
17,O=C(c1cccc(F)c1)N1CC2(C1)[C@H](c1ccccc1)[C@H](CO)N2Cc1ccccn1,1.15 ± 0.073
18,C[C@H](CO)N1C[C@H](C)[C@H](CN(C)C(=O)CCC(F)(F)F)OCc2cnnn2CCCC1=O,1.06 ± 0.047
19,CO[C@@H]1CC[C@@H]2CCOc3c(C#N)cccc3C(=O)N(C)CCCC(=O)N(C)C[C@@H]1O2,1.02 ± 0.031
20,CO[C@H]1CN(C)C(=O)c2cc(NS(C)(=O)=O)ccc2OC[C@H](C)N(C(=O)C2CCOCC2)C[C@H]1C,1.12 ± 0.048
21,CC(C)NC(=O)NCC[C@H]1CC[C@H](NS(=O)(=O)c2ccc(Oc3ccccc3)cc2)[C@@H](CO)O1,1.09 ± 0.041
22,CN1C(=O)c2cc(NC(=O)Cc3cccs3)ccc2OC[C@@H]2O[C@H](CC(=O)NCCCN3CCOCC3)CC[C@H]21,0.998 ± 0.074
23,Cc1noc(C)c1NC(=O)Nc1ccc2c(c1)C(=O)N([C@@H](C)CO)C[C@H](C)[C@@H](CN(C)Cc1ccc3c(c1)OCO3)OCCCC[C@@H](C)O2,1.13 ± 0.015
24,CN1C(=O)c2cc(NC(=O)c3cscn3)ccc2OC[C@H]2O[C@@H](CC(=O)N3CCOCC3)CC[C@H]21,1.11 ± 0.21

row,SMILES,viability index
1,Cc1ccc(S(=O)(=O)N(C)C[C@@H]2OCCCC[C@H](C)Oc3ccc(NC(=O)c4ccncc4)cc3C(=O)N([C@@H](C)CO)C[C@H]2C)cc1,0.966 ± 0.073
2,CO[C@@H](CN(C)Cc1nccs1)[C@H](C)CN([C@@H](C)CO)S(=O)(=O)c1ccc(F)cc1,1.01 ± 0.078
3,CS(=O)(=O)N1[C@@H](C#N)[C@@H](c2ccc(-c3ccccc3F)cc2)[C@@H]1CO,1.04 ± 0.03
4,O=C(Nc1ccc(C(F)(F)F)cc1)N[C@@H]1C=C[C@@H](CC(=O)N2CCCCC2)O[C@H]1CO,1.111 ± 0.008
5,CCCC(=O)Nc1ccc2c(c1)OC[C@H](C)NC[C@@H](C)[C@@H](OC)CN(C)C2=O,1.114 ± 0.0019
6,COc1ccc(NC(=O)N2CC[C@@]3(CC2)CN([C@H](CO)c2c3c3ccc(OC)cc3n2C)C(=O)C2CCC2)cc1,0.785 ± 0.057
7,CO[C@H]1CN(C)C(=O)c2ccc(NS(C)(=O)=O)cc2OC[C@@H](C)N(C(=O)CN(C)C)C[C@H]1C,1.02 ± 0.017
8,COc1ccc2c3c([nH]c2c1)[C@H](CO)N(Cc1ccccn1)C[C@]31CCN(CC1)C(C)=O,1.04 ± 0.053
9,C[C@@H]1CCCCO[C@@H](CN(C)S(=O)(=O)c2cn(C)cn2)[C@H](C)CN([C@@H](C)CO)C(=O)c2cc(N(C)C)ccc2O1,1.06 ± 0.012
10,COc1ccc2c3c([C@H](CO)NC[C@]33CCN(CC3)C(=O)c3ccc(F)cc3)n(C)c2c1,0.918 ± 0.025
11,CS(=O)(=O)N1[C@H](CO)[C@H](c2ccc(C#Cc3cccc(F)c3)cc2)[C@@H]1C#N,1.04 ± 0.061
12,CO[C@@H]1CN(C)C(=O)c2ccc(NC(=O)Nc3ccc(F)cc3)cc2OC[C@@H](C)N(C(=O)c2ccc(F)cc2)C[C@H]1C,1 ± 0.025
13,Cc1nn(C)cc1NC(=O)C[C@@H]1CC[C@H]2[C@H](COc3ccc(NC(=O)C4CCOCC4)cc3C(=O)N2C)O1,1.087 ± 0.0056
14,CC(C)C[C@H]1COCc2cn(nn2)CC[C@H](Cc2ccc(Cl)cc2)C(=O)N1,0.978 ± 0.097
15,CC(C)c1cn(CC[C@@H]2CC[C@@H](NS(=O)(=O)c3ccc(F)cc3)[C@H](CO)O2)nn1,1.12 ± 0.091
16,CO[C@@H]1CN(C)C(=O)c2cc(NC(=O)Nc3c(C)noc3C)ccc2OC[C@@H](C)NC[C@H]1C,1.03 ± 0.047
17,COc1ccccc1CNC(=O)C[C@H]1CC[C@H]2[C@@H](COc3ccc(NC(C)=O)cc3C(=O)N2C)O1,0.975 ± 0.098
18,COc1ccc(S(=O)(=O)Nc2ccc3c(c2)C(=O)N([C@@H](C)CO)C[C@@H](C)[C@@H](CN(C)S(=O)(=O)c2ccc(Cl)cc2)OCCCC[C@H](C)O3)cc1,0.911 ± 0.031
19,CCCC#Cc1ccc2c(c1)[C@@H]1[C@@H](CCN1C(=O)CC1CC1)[C@@H](CO)N2C,1.09 ± 0.02
20,O=C(C[C@H]1CC[C@@H](NC(=O)c2ccc(F)cc2)[C@H](CO)O1)NCCc1ccccc1,1.12 ± 0.089
21,CO[C@H]1CN(C)C(=O)c2cc(NC(=O)NC3CCCCC3)ccc2OC[C@@H](C)N(CC2CCOCC2)C[C@@H]1C,1.09 ± 0.029
22,COCC(=O)Nc1ccc2c(c1)[C@H]1C[C@H](CC(=O)N[C@H](C)c3ccccc3)O[C@@H](CO)[C@H]1O2,1.016 ± 0.0073
23,CN(C)C(=O)c1cccc(-c2ccc([C@H]3[C@@H]4CN(Cc5ccccc5F)C[C@H]3N4)cc2)c1,1.05 ± 0.084
24,CC(C)C#Cc1ccc([C@H]2[C@H](CO)N3C(=O)CN(C(=O)NC4CCCC4)C[C@@H]23)cc1,0.977 ± 0.053

row,SMILES,viability index
1,O=C(Cc1cccnc1)N1CC(=O)N2[C@H](CO)[C@@H](c3ccc(C4=CCCCC4)cc3)[C@H]2C1,0.9507 ± 0.0051
2,CO[C@H](CN(C)Cc1cc(F)ccc1F)[C@@H](C)CN(C(=O)Nc1ccc(C(F)(F)F)cc1)[C@H](C)CO,1.1 ± 0.057
3,COc1cccc(NC(=O)Nc2ccc3c(c2)C(=O)N(C)C[C@@H](OC)[C@H](C)CN[C@H](C)CO3)c1,0.946 ± 0.14
4,O=C(O)[C@@H]1[C@@H](CO)[C@@H]2Cn3c(cccc3=O)[C@@H]2N1C(=O)NC1CCCC1,1.09 ± 0.016
5,N#C[C@@H]1[C@@H](c2ccc(C#Cc3cccnc3)cc2)[C@@H](CO)N1C(=O)NC1CCCCC1,1.08 ± 0.11
6,COc1ccccc1NC(=O)N1C[C@H]2[C@@H](c3ccccc31)[C@H](CO)N2C(=O)C1CCCC1,1.02 ± 0.046
7,COc1ccc2c3c([C@@H](CO)N(Cc4ccncc4)C[C@]33CN(C3)C(=O)C3CCCCC3)n(C)c2c1,1.062 ± 0.004
8,CS(=O)(=O)Nc1ccc2c(c1)[C@H]1C[C@@H](CC(=O)NCCc3ccccc3)O[C@H](CO)[C@H]1O2,1.04 ± 0.022
9,O=C(C[C@H]1CC[C@@H]2[C@H](COC[C@H](O)CN2C(=O)c2cccnc2)O1)NCC1CC1,1 ± 0.052
10,COc1ccc(-c2cn(CC[C@H]3CC[C@H](NC(=O)c4cnccn4)[C@@H](CO)O3)nn2)cc1,1.18 ± 0.081
11,CO[C@@H]1CN(C)C(=O)c2cc(NC(=O)C3CCOCC3)ccc2OC[C@@H](C)N(C(=O)Nc2ccc(C(F)(F)F)cc2)C[C@H]1C,0.9496 ± 0.0042
12,CCCN1C[C@H](C)[C@H](OC)CN(C)C(=O)c2cc(NC(=O)Nc3cccc(F)c3)ccc2OC[C@H]1C,1.13 ± 0.05
13,CN(C)C(=O)C[C@@H]1C=C[C@H](NC(=O)c2ccc(F)cc2)[C@H](CO)O1,1.11 ± 0.23
14,O=C(c1ccccn1)N1CC(=O)N2[C@H](CO)[C@H](c3ccc(C4=CCCC4)cc3)[C@@H]2C1,0.998 ± 0.087
15,C[C@@H]1CN([C@@H](C)CO)C(=O)c2cc(NC(=O)Nc3cccc4ccccc34)ccc2O[C@@H]1CN(C)S(=O)(=O)c1cccs1,1.04 ± 0.043
16,CC(C)(O)C#Cc1ccc([C@@H]2[C@@H](CO)N3CCCCN(S(C)(=O)=O)C[C@H]23)cc1,1.02 ± 0.037
17,O=C(C[C@H]1C=C[C@@H](NC(=O)c2cnccn2)[C@@H](CO)O1)NCc1ccccc1F,1.04 ± 0.068
18,CCNC(=O)[C@H]1[C@H](CO)[C@H]2Cn3c(cccc3=O)[C@@H]1N2C(=O)Nc1cc(F)ccc1F,1.03 ± 0.078
19,CO[C@H]1CN(C)C(=O)c2cccc(C#N)c2OCC[C@H]2CC[C@@H](OC)[C@H](CN(C)C(=O)[C@H]1C)O2,1.04 ± 0.029
20,Cc1noc(C)c1S(=O)(=O)N(C)C[C@H]1Oc2c(NC(=O)c3ccc(-c4nccs4)cc3)cccc2C(=O)N([C@@H](C)CO)C[C@H]1C,1.02 ± 0.032
21,CC(C)NC(=O)Nc1cccc2c1O[C@H](CN(C)C(=O)Nc1ccccc1)[C@@H](C)CN([C@H](C)CO)C2=O,0.975 ± 0.13
22,c1cncc(CN2C[C@@H]3N[C@H](C2)[C@@H]3c2ccc(-c3cccnc3)cc2)c1,1.084 ± 0.0083
